# Experimental data as given in the supplement of paper PMC8728848.
# The list shows a part of the results.
# Assays:
# Assay in all cases: glycan array binding signal (z-score within array); higher = stronger binding
# Details in all cases: glycan notation: IUPAC condensed, linker removed
# [1] = molecular target: GlcNAc(b1-3)Gal(b1-4)GlcNAc(b1-3)Gal(b1-4)GlcNAc(b1-2)Man(a1-3)[GlcNAc(b1-3)Gal(b1-4)GlcNAc(b1-3)Gal(b1-4)GlcNAc(b1-2)Man(a1-6)]Man(b1-4)GlcNAc(b1-4)GlcNAc
# Outline: (§1)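 Negative Z-scores can be read as non-binding. The Z-score is calculated within each array and then averaged across arrays of one protein sequence at different concentrations or buffers and across linkers. Arrays, 3228 in all, were curated from the Consortium for Functional Glycomics database and kept only where the protein sequence was available.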
# [2] = molecular target: GlcNAc(b1-3)Gal(b1-4)GlcNAc(b1-3)Gal(b1-4)GlcNAc(b1-2)Man(a1-3)[GlcNAc(b1-3)Gal(b1-4)GlcNAc(b1-3)Gal(b1-4)GlcNAc(b1-2)Man(a1-6)]Man(b1-4)GlcNAc(b1-4)[Fuc(a1-6)]GlcNAc
# Outline: as §1
# [3] = molecular target: GlcNAc(b1-3)Gal(b1-4)GlcNAc(b1-3)Gal(b1-4)GlcNAc(b1-2)[GlcNAc(b1-3)Gal(b1-4)GlcNAc(b1-3)Gal(b1-4)GlcNAc(b1-6)]Man(a1-6)[GlcNAc(b1-3)Gal(b1-4)GlcNAc(b1-3)Gal(b1-4)GlcNAc(b1-2)Man(a1-3)]Man(b1-4)GlcNAc(b1-4)[Fuc(a1-6)]GlcNAc
# Outline: as §1
# [4] = molecular target: GlcNAc(b1-3)Gal(b1-4)GlcNAc(b1-3)Gal(b1-4)GlcNAc(b1-3)Gal(b1-4)GlcNAc(b1-2)Man(a1-3)[GlcNAc(b1-3)Gal(b1-4)GlcNAc(b1-3)Gal(b1-4)GlcNAc(b1-3)Gal(b1-4)GlcNAc(b1-2)Man(a1-6)]Man(b1-4)GlcNAc(b1-4)GlcNAc
# Outline: as §1
# [5] = molecular target: GlcNAc(b1-3)Gal(b1-4)GlcNAc(b1-3)Gal(b1-4)GlcNAc(b1-3)Gal(b1-4)GlcNAc(b1-2)Man(a1-3)[GlcNAc(b1-3)Gal(b1-4)GlcNAc(b1-3)Gal(b1-4)GlcNAc(b1-3)Gal(b1-4)GlcNAc(b1-2)Man(a1-6)]Man(b1-4)GlcNAc(b1-4)[Fuc(a1-6)]GlcNAc
# Outline: as §1
# [6] = molecular target: GlcNAc(b1-3)Gal(b1-4)GlcNAc(b1-3)Gal(b1-4)GlcNAc(b1-3)Gal(b1-4)GlcNAc(b1-2)[GlcNAc(b1-3)Gal(b1-4)GlcNAc(b1-3)Gal(b1-4)GlcNAc(b1-3)Gal(b1-4)GlcNAc(b1-6)]Man(a1-6)[GlcNAc(b1-3)Gal(b1-4)GlcNAc(b1-3)Gal(b1-4)GlcNAc(b1-3)Gal(b1-4)GlcNAc(b1-2)Man(a1-3)]Man(b1-4)GlcNAc(b1-4)[Fuc(a1-6)]GlcNAc
# Outline: as §1
# [7] = molecular target: GlcNAc(b1-3)Gal(b1-4)GlcNAc(b1-3)Gal(b1-4)GlcNAc(b1-3)Gal(b1-4)GlcNAc(b1-3)Gal(b1-4)GlcNAc(b1-2)Man(a1-3)[GlcNAc(b1-3)Gal(b1-4)GlcNAc(b1-3)Gal(b1-4)GlcNAc(b1-3)Gal(b1-4)GlcNAc(b1-3)Gal(b1-4)GlcNAc(b1-2)Man(a1-6)]Man(b1-4)GlcNAc(b1-4)GlcNAc
# Outline: as §1
# [8] = molecular target: GlcNAc(b1-3)Gal(b1-4)GlcNAc(b1-3)Gal(b1-4)GlcNAc(b1-3)Gal(b1-4)GlcNAc(b1-3)Gal(b1-4)GlcNAc(b1-2)Man(a1-3)[GlcNAc(b1-3)Gal(b1-4)GlcNAc(b1-3)Gal(b1-4)GlcNAc(b1-3)Gal(b1-4)GlcNAc(b1-3)Gal(b1-4)GlcNAc(b1-2)Man(a1-6)]Man(b1-4)GlcNAc(b1-4)[Fuc(a1-6)]GlcNAc
# Outline: as §1
# [9] = molecular target: GlcNAc(b1-3)Gal(b1-4)GlcNAc(b1-3)Gal(b1-4)GlcNAc(b1-3)Gal(b1-4)GlcNAc(b1-3)Gal(b1-4)GlcNAc(b1-2)[GlcNAc(b1-3)Gal(b1-4)GlcNAc(b1-3)Gal(b1-4)GlcNAc(b1-3)Gal(b1-4)GlcNAc(b1-3)Gal(b1-4)GlcNAc(b1-6)]Man(a1-6)[GlcNAc(b1-3)Gal(b1-4)GlcNAc(b1-3)Gal(b1-4)GlcNAc(b1-3)Gal(b1-4)GlcNAc(b1-3)Gal(b1-4)GlcNAc(b1-2)Man(a1-3)]Man(b1-4)GlcNAc(b1-4)[Fuc(a1-6)]GlcNAc
# Outline: as §1
# [10] = molecular target: GlcNAc(b1-3)Gal(b1-4)GlcNAc(b1-3)Gal(b1-4)GlcNAc(b1-3)GalNAc
# Outline: as §1
# [11] = molecular target: GlcNAc(b1-3)Gal(b1-4)GlcNAc(b1-3)GalNAc
# Outline: as §1
# [12] = molecular target: GlcNAc(b1-3)Gal(b1-4)GlcNAc(b1-3)[GlcNAc(b1-3)Gal(b1-4)GlcNAc(b1-3)]GalNAc
# Outline: as §1
# [13] = molecular target: GlcNAc(b1-3)Gal(b1-4)GlcNAc(b1-6)[Gal(b1-3)]GalNAc
# Outline: as §1
# [14] = molecular target: GlcNAc(b1-3)Gal(b1-4)GlcNAc(b1-6)[GlcNAc(b1-3)Gal(b1-3)]GalNAc
# Outline: as §1
# [15] = molecular target: GlcNAc(b1-3)Gal(b1-4)GlcNAc(b1-6)[GlcNAc(b1-3)]Gal(b1-4)GlcNAc
# Outline: as §1
# [16] = molecular target: GlcNAc(b1-3)GalNAc
# Outline: as §1
# [17] = molecular target: GlcNAc(b1-3)Man
# Outline: as §1
# [18] = molecular target: GlcNAc(b1-3)[GlcNAc(b1-4)][GlcNAc(b1-6)]GlcNAc
# Outline: as §1
# [19] = molecular target: GlcNAc(b1-3)[GlcNAc(b1-6)]Gal(b1-4)GlcNAc
# Outline: as §1
# [20] = molecular target: GlcNAc(b1-3)[GlcNAc(b1-6)]GalNAc
# Outline: as §1
# [21] = molecular target: GlcNAc(b1-4)Gal(b1-4)GlcNAc
# Outline: as §1
# [22] = molecular target: GlcNAc(b1-4)GlcNAc
# Outline: as §1
# [23] = molecular target: GlcNAc(b1-4)GlcNAc(b1-4)GlcNAc
# Outline: as §1
# [24] = molecular target: GlcNAc(b1-4)GlcNAc(b1-4)GlcNAc(b1-4)GlcNAc(b1-4)GlcNAc
# Outline: as §1
# [25] = molecular target: GlcNAc(b1-4)GlcNAc(b1-4)GlcNAc(b1-4)GlcNAc(b1-4)GlcNAc(b1-4)GlcNAc
# Outline: as §1
# [26] = molecular target: GlcNAc(b1-4)[GlcNAc(b1-6)]GalNAc
# Outline: as §1
# [27] = molecular target: GlcNAc(b1-6)Gal(b1-4)GlcNAc
# Outline: as §1
# [28] = molecular target: GlcNAc(b1-6)GalNAc
# Outline: as §1
# [29] = molecular target: GlcNAc6S(b1-3)Gal(b1-4)GlcNAc
# Outline: as §1
# [30] = molecular target: Kdn(a2-3)Gal(b1-3)GalNAc
# Outline: as §1
# [31] = molecular target: Kdn(a2-3)Gal(b1-3)GlcNAc
# Outline: as §1
# [32] = molecular target: Kdn(a2-3)Gal(b1-4)Glc
# Outline: as §1
# [33] = molecular target: Kdn(a2-3)Gal(b1-4)GlcNAc
# Outline: as §1
# [34] = molecular target: Kdn(a2-3)Gal(b1-4)[Fuc(a1-3)]GlcNAc
# Outline: as §1
# [35] = molecular target: Kdn(a2-6)Gal(b1-4)GlcNAc
# Outline: as §1
# [36] = molecular target: Man(a1-2)Man(a1-2)Man(a1-3)Man
# Outline: as §1
# [37] = molecular target: Man(a1-2)Man(a1-2)Man(a1-6)[Man(a1-3)]Man
# Outline: as §1
# [38] = molecular target: Man(a1-2)Man(a1-3)Man
# Outline: as §1
binder,measurement,setting,value
"Epa3 (Candida glabrata), Q6VBI8_CANGB (protein) MGSSHHHHHHSSGLVPRGSHMNDLGFSLFEKRELSSQNPFGYPIGCSPQDVAIIPGLTMELYSYPIVSGTPPNCYDASYVDPEYPRTGYLKRKMVGKSTGVTGNLNYKYSVEKACMVKYGNLPAGYNYNEPLTVSNFTMILYGYFKAQTTGLHTFFVNADDLLYINFGAGNAFDCCKREDSKTKLGEYVAYDIWHVDSSKNKVSLFLEKDLYYPIRMFFNNIGKDSSLDLSFSVNGATDQISDFSGYLYSVPDQPDTCPAHIGYDTTCR",glycan array binding signal (z-score),[1],1.18
same,glycan array binding signal (z-score),[2],0.201
same,glycan array binding signal (z-score),[3],0.227
same,glycan array binding signal (z-score),[4],-0.154
same,glycan array binding signal (z-score),[5],0.076
same,glycan array binding signal (z-score),[6],-0.083
same,glycan array binding signal (z-score),[7],-0.125
same,glycan array binding signal (z-score),[8],-0.196
same,glycan array binding signal (z-score),[9],-0.182
same,glycan array binding signal (z-score),[10],-0.33
same,glycan array binding signal (z-score),[11],-0.265
same,glycan array binding signal (z-score),[12],-0.249
same,glycan array binding signal (z-score),[13],0.905
same,glycan array binding signal (z-score),[14],-0.276
same,glycan array binding signal (z-score),[15],-0.338
same,glycan array binding signal (z-score),[16],-0.213
same,glycan array binding signal (z-score),[17],-0.241
same,glycan array binding signal (z-score),[18],-0.297
same,glycan array binding signal (z-score),[19],-0.359
same,glycan array binding signal (z-score),[20],-0.176
same,glycan array binding signal (z-score),[21],-0.213
same,glycan array binding signal (z-score),[22],-0.273
same,glycan array binding signal (z-score),[23],-0.106
same,glycan array binding signal (z-score),[24],-0.307
same,glycan array binding signal (z-score),[25],-0.091
same,glycan array binding signal (z-score),[26],-0.045
same,glycan array binding signal (z-score),[27],-0.284
same,glycan array binding signal (z-score),[28],-0.139
same,glycan array binding signal (z-score),[29],-0.013
same,glycan array binding signal (z-score),[30],-0.196
same,glycan array binding signal (z-score),[31],-0.262
same,glycan array binding signal (z-score),[32],-0.049
same,glycan array binding signal (z-score),[33],-0.225
same,glycan array binding signal (z-score),[34],-0.192
same,glycan array binding signal (z-score),[35],-0.334
same,glycan array binding signal (z-score),[36],0.793
same,glycan array binding signal (z-score),[37],-0.213
same,glycan array binding signal (z-score),[38],-0.262
